Experimental findings from paper PMC6345720 are described below.

Experiment [1] deals with T1, PLDδ-cYFP-HA (35S::PLDδ-cYFP-HA) (Arabidopsis thaliana) (UniProt Q9C5Y0).
T1 sequence: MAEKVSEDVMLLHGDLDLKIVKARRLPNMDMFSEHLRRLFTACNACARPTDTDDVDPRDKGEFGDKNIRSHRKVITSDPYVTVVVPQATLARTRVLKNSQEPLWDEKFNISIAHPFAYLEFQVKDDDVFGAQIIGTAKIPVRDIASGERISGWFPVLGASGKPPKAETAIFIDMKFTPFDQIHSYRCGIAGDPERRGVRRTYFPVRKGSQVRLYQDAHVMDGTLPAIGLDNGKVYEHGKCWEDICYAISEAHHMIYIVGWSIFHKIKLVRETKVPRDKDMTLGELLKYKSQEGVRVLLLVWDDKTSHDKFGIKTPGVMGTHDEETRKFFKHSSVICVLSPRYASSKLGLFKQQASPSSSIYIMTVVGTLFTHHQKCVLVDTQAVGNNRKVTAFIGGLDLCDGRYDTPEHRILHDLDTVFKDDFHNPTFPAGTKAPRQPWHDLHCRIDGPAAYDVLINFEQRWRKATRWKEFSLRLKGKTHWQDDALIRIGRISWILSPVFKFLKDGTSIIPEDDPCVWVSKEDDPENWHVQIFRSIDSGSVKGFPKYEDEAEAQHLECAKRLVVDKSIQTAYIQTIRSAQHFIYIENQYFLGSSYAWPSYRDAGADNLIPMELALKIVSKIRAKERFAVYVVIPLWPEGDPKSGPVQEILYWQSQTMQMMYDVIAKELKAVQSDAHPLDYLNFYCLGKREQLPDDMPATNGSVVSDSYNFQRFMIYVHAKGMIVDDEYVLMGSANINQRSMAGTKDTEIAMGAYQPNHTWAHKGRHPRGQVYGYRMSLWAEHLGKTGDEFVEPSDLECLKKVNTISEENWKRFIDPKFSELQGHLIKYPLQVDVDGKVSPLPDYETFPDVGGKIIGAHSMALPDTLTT
Nature of the experiment: split reporter; BiFC: nYFP and cYFP fusions co-expressed in N. benthamiana leaves; confocal microscopy 2.5 days after infiltration.

Experiment [2] has as its target T2, PLDδ-YFP-HA (35S::PLDδ-YFP-HA, in A. thaliana) (Arabidopsis thaliana) (UniProt Q9C5Y0).
T2 sequence: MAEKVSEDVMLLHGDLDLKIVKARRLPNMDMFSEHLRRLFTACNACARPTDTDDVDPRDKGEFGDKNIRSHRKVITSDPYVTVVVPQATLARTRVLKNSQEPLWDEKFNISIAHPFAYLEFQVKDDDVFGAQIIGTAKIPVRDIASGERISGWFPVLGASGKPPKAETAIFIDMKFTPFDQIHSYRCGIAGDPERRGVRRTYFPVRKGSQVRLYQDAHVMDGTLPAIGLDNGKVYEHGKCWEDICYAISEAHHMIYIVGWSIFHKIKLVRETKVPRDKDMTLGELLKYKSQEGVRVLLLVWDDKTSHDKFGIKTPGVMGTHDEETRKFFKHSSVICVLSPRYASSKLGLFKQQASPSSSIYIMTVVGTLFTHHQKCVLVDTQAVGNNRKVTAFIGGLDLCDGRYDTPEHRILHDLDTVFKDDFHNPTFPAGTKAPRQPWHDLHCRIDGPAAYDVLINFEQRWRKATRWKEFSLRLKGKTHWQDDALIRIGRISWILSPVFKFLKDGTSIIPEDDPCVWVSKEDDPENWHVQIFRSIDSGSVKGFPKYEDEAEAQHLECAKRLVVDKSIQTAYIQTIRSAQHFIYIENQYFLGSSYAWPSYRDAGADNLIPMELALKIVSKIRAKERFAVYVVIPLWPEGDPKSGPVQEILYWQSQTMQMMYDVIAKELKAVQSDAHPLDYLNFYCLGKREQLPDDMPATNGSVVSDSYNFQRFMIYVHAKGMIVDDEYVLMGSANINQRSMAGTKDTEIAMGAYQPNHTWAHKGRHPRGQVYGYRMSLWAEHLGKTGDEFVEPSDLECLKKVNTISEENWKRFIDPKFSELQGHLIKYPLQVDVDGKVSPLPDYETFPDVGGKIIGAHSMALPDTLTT
The experiment is described as follows: co-IP; stable transgenic A. thaliana plants containing 35S::PLDδ-YFP-HA and pRPM1::RPM1-Myc; plants with pRPM1::RPM1-Myc alone as negative control.

These are yes or no findings as the source states them, for the method shown. In cells and extracts the contact can be indirect. Some binding calls cover weakened binding; strength is not graded here. Where a sequence is shown, tags or fusion partners need not be part of it.

B1: RPM1-nYFP-HA (35S::RPM1-nYFP-HA) (receptor, UniProt Q39214 1-926)
chain: MASATVDFGIGRILSVLENETLLLSGVHGEIDKMKKELLIMKSFLEDTHKHGGNGSTTTTTQLFQTFVANTRDLAYQIEDILDEFGYHIHGYRSCAKIWRAFHFPRYMWARHSIAQKLGMVNVMIQSISDSMKRYYHSENYQAALLPPIDDGDAKWVNNISESSLFFSENSLVGIDAPKGKLIGRLLSPEPQRIVVAVVGMGGSGKTTLSANIFKSQSVRRHFESYAWVTISKSYVIEDVFRTMIKEFYKEADTQIPAELYSLGYRELVEKLVEYLQSKRYIVVLDDVWTTGLWREISIALPDGIYGSRVMMTTRDMNVASFPYGIGSTKHEIELLKEDEAWVLFSNKAFPASLEQCRTQNLEPIARKLVERCQGLPLAIASLGSMMSTKKFESEWKKVYSTLNWELNNNHELKIVRSIMFLSFNDLPYPLKRCFLYCSLFPVNYRMKRKRLIRMWMAQRFVEPIRGVKAEEVADSYLNELVYRNMLQVILWNPFGRPKAFKMHDVIWEIALSVSKLERFCDVYNDDSDGDDAAETMENYGSRHLCIQKEMTPDSIRATNLHSLLVCSSAKHKMELLPSLNLLRALDLEDSSISKLPDCLVTMFNLKYLNLSKTQVKELPKNFHKLVNLETLNTKHSKIEELPLGMWKLKKLRYLITFRRNEGHDSNWNYVLGTRVVPKIWQLKDLQVMDCFNAEDELIKNLGCMTQLTRISLVMVRREHGRDLCDSLNKIKRIRFLSLTSIDEEEPLEIDDLIATASIEKLFLAGKLERVPSWFNTLQNLTYLGLRGSQLQENAILSIQTLPRLVWLSFYNAYMGPRLRFAQGFQNLKILEIVQMKHLTEVVIEDGAMFELQKLYVRACRGLEYVPRGIENLINLQELHLIHVSNQLVERIRGEGSVDRSRVKHIPAIKHYFRTDNGSFYVSLSS
Take B1: the binding result in experiment [1] is recorded as “binds”.

B2: RPM1-Myc (pRPM1::RPM1-Myc, in the A. thaliana line AT5) (receptor, UniProt Q39214 1-926)
chain: MASATVDFGIGRILSVLENETLLLSGVHGEIDKMKKELLIMKSFLEDTHKHGGNGSTTTTTQLFQTFVANTRDLAYQIEDILDEFGYHIHGYRSCAKIWRAFHFPRYMWARHSIAQKLGMVNVMIQSISDSMKRYYHSENYQAALLPPIDDGDAKWVNNISESSLFFSENSLVGIDAPKGKLIGRLLSPEPQRIVVAVVGMGGSGKTTLSANIFKSQSVRRHFESYAWVTISKSYVIEDVFRTMIKEFYKEADTQIPAELYSLGYRELVEKLVEYLQSKRYIVVLDDVWTTGLWREISIALPDGIYGSRVMMTTRDMNVASFPYGIGSTKHEIELLKEDEAWVLFSNKAFPASLEQCRTQNLEPIARKLVERCQGLPLAIASLGSMMSTKKFESEWKKVYSTLNWELNNNHELKIVRSIMFLSFNDLPYPLKRCFLYCSLFPVNYRMKRKRLIRMWMAQRFVEPIRGVKAEEVADSYLNELVYRNMLQVILWNPFGRPKAFKMHDVIWEIALSVSKLERFCDVYNDDSDGDDAAETMENYGSRHLCIQKEMTPDSIRATNLHSLLVCSSAKHKMELLPSLNLLRALDLEDSSISKLPDCLVTMFNLKYLNLSKTQVKELPKNFHKLVNLETLNTKHSKIEELPLGMWKLKKLRYLITFRRNEGHDSNWNYVLGTRVVPKIWQLKDLQVMDCFNAEDELIKNLGCMTQLTRISLVMVRREHGRDLCDSLNKIKRIRFLSLTSIDEEEPLEIDDLIATASIEKLFLAGKLERVPSWFNTLQNLTYLGLRGSQLQENAILSIQTLPRLVWLSFYNAYMGPRLRFAQGFQNLKILEIVQMKHLTEVVIEDGAMFELQKLYVRACRGLEYVPRGIENLINLQELHLIHVSNQLVERIRGEGSVDRSRVKHIPAIKHYFRTDNGSFYVSLSS
Take B2: the binding entry in experiment [2] is on record as “binds”.
